The full ranking holds about 110,000 compounds; the median of “z-score” is about -0.1, and the highest 2% start at about 2. Some of the results follow. Activity calls are given as the source filed them.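 How the source made its calls: active means z-score in the third read window above 3 or below -3; inactive means the rest.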

Data on 68 molecules can be found in PubChem BioAssay AID488969 (Vanderbilt High Throughput Screening Facility, 2010).

In the assay the target is Metabotropic glutamate receptor 8 (Rattus norvegicus) (UniProt P70579). Kind of assay: rat mGluR8 modulators via GIRK flux, primary screen, cell-based, thallium flux, HTS (AID 488969). The note with it: HEK293 rat mGluR8, GIRK (G protein-gated inwardly rectifying potassium channel) thallium flux, FluoZin2; at 10 µM; stronger effect = higher value; submaximal glutamate (EC20) added with thallium.
Chain of UniProt P70579 (P70579 whole entry, looked up): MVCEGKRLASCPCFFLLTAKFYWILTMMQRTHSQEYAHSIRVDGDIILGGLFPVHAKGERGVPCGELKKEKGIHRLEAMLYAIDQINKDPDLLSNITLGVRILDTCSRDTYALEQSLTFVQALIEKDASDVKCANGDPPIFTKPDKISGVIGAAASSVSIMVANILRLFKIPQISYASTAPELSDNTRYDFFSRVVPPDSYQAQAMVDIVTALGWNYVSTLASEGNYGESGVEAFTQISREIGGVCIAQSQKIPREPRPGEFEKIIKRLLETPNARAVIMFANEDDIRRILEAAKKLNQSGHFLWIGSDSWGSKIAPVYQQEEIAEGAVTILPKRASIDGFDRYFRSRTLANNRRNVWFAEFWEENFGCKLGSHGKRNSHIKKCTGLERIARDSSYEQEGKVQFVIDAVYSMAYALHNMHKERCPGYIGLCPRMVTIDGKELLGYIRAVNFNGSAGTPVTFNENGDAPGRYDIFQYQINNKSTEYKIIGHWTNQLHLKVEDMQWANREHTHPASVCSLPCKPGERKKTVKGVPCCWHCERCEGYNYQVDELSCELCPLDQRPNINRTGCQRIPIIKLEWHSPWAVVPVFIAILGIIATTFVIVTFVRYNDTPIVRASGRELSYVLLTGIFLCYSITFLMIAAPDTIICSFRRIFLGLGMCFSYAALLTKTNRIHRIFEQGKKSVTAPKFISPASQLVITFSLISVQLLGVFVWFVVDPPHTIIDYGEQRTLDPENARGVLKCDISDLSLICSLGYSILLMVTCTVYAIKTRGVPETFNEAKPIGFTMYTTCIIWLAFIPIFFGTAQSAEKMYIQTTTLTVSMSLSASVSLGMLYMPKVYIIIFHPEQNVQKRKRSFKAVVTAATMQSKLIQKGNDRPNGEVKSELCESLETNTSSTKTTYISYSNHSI
Turning to `CCc1ccc(-c2nc(CN3CCC(C(=O)NCCc4ccc(OC)c(OC)c4)CC3)c(C)o2)cc1`, the z-score was determined as 0.471.
Under `COc1ccc(-n2nc([N+](=O)[O-])c(=NCc3cccnc3)n2O)cc1` stands 0.122; under `O=C(Cn1cc(C(F)(F)F)ccc1=O)N1CCN(S(=O)(=O)c2ccccc2)CC1`, -1.45; under `N/C(Cc1ccc(Cl)cc1)=N\OC(=O)C1CCCCC1`, 0.094.
Under `CCc1nc2ccccc2n1Cc1ccc(OC)c(OC)c1` stands 0.0653.
Under `CCOC(=O)c1nnn(CC(=O)Nc2cc(Cl)ccc2C)c1C(=O)OCC` stands -0.605.
Molecule `Cc1cccc(N(CC(=O)NCCSc2nc3ccccc3s2)S(=O)(=O)c2ccccc2)c1` gave a z-score of 0.251.
Take `CC1(c2ccc3noc(-c4ccc(Cl)cc4)c3c2)OCCO1`: the z-score was -0.278.
For `O=C(NCCN1CCCCC1)c1cc(OCC(F)(F)F)ccc1OCC(F)(F)F` the value was -0.433.
Take `O=S(=O)(Nc1ccc2nc(C(F)(F)F)[nH]c2c1)c1ccccc1`: the z-score is active: 4.74.
`COc1cccc(-n2c(COc3ccc(C)cc3)nnc2SCC(=O)O)c1`: the z-score was -0.0168.
For `Cc1ccc(-c2nnc(C)c(N3CCOCC3)n2)cc1` the value was -0.00745; for `CCOC(=O)N1CCN(C(=O)c2cccn3c(=O)c4sccc4nc23)CC1`, -0.0754; for `O=C(CSc1nnnn1-c1cccc2c1CCCC2)N1CCCC1`, 0.0215.
Under `Cc1ccc[n+](CC(=O)c2cc3ccccc3oc2=O)c1` stands -0.335; under `O=C1C(Cc2cccc([N+](=O)[O-])c2)S/C(=N/N=C/c2ccco2)N1c1ccccc1` (stereo not drawn), -0.0379.
Under `O=C(Oc1cc2oc(=O)cc(-c3ccccc3)c2cc1Cl)C1CCCCC1` stands -0.221.
As to `CCN1C(=O)CSC1=NC1C2CC3CC(C2)CC1C3` (stereo not drawn), the z-score was found to be 0.387.
Under `O=C1CSC(=S)N1CC1CCCO1` (stereo not drawn) stands -0.08; under `COn1c(-c2ccccc2)nc2ccc(Cl)cc21`, -0.0829; under `COc1ccc(C2=NOC3(CC(=O)N(c4ccc5ccccc5c4)C3=O)C2)c(OC)c1` (stereo not drawn), 0.0522.
For `COc1ccc(Oc2ccccc2C=O)cc1` the value was -0.297; for `CC(/C=C/c1ccc(O)cc1)=N/O`, -0.0742; for `COc1ccc(-c2cc3c(=O)n(CC(=O)NC4CCN(Cc5ccccc5)CC4)ncn3n2)cc1`, -0.042.
As for `CCOc1ccc2oc(C(=O)Nc3ccc(N4CCOCC4)cc3)c(C)c2c1`, the z-score was -0.537.
Molecule `O=C(NCCc1ccccc1)C(c1cccs1)N(C(=O)c1csnn1)C1CC1` (stereo not drawn) yielded a z-score of -0.329.
Under `COC(=O)/C(=C/Nc1ccccc1)[N+](=O)[O-]` stands -0.132.
For `COC(=O)c1c(C)oc2c1cc(NS(=O)(=O)c1cccs1)c1ccccc12` the value was -0.0313; for `Cc1cccc(C)c1Nc1nnc(SCC(=O)NCc2ccco2)s1`, -1.08.
Under `O=C1[C@@H]2[C@@H]3C[C@@H]([C@H]4ON=C(c5ccc(Cl)cc5)[C@@H]34)[C@@H]2C(=O)N1C1CCCCC1` stands 0.352; under `CCS(=O)(=O)c1ccc(O)c(NC(=O)COc2ccc(C)cc2)c1`, -0.136.
On to `Cc1cc(C)cc(Nc2cnn(C34CC5CC(CC(CC(=O)O)(C5)C3)C4)c(=O)c2Cl)c1`, for which the z-score is -0.118.
For `Cc1ccc(CSc2nnc(-c3ccncc3)n2CC2CCCO2)cc1` (stereo not drawn) the value was 0.0783.
As for `CCc1ccc(C2CC(=O)NC(SCC(=O)OC(C)C)=C2C#N)cc1` (stereo not drawn), the z-score was -0.0811.
For `Cc1sc2nc(SCc3nc(-c4cccs4)no3)n(-c3ccccc3)c(=O)c2c1C` the value was 0.0145; for `CN1CCN(C(c2cccc(Cl)c2)c2ccccc2Cl)CC1` (stereo not drawn), 0.826.
Under `Cc1ccccc1CSc1nc(-c2ccccc2)cc(=O)[nH]1` stands -0.423; under `COC(=O)c1ccc2c(=O)n(CCCN3CCOCC3)c(=S)[nH]c2c1`, 1; under `CCC(=O)/C=C1/Sc2ccccc2N1CC`, 0.119.
`CC1CCN(S(=O)(=O)c2cccc(C(=O)Nc3ccccn3)c2)CC1` returned a z-score of 0.081.
Under `COc1ccc(/C=N/NC(=O)c2cc(Br)ccc2O)cc1Cn1cc(Cl)cn1` stands 0.377; under `Cc1nc(Nc2nc(=O)c3ccccc3n2C)nc2c(C)cccc12`, 0.623; under `COc1ccc(C(=O)NC(C)c2nc3ccccc3[nH]2)cc1OC` (stereo not drawn), -0.126.
For `Cc1cc(NS(=O)(=O)c2ccccc2)c([N+](=O)[O-])cc1C` the value was 1.41; for `O=C(CN1C(=O)c2ccccc2C1=O)Nc1cccc([N+](=O)[O-])c1`, -1.4; for `COc1cc2c(cc1NC(=O)c1ccc3c(c1)OCO3)oc1ccccc12`, -0.114.
As to `CC(=O)Nc1cc(C(C)C)c(O)c(C(C)C)c1`, the z-score was -0.322.
Regarding `COC(=O)c1c(NC(=O)COc2ncnc3ccccc23)sc(C)c1C`, the z-score was -0.279.
For `O=C(CN(Cc1ccc2c(c1)OCO2)C(=O)CNS(=O)(=O)c1ccccc1)NCC1CCCO1` (stereo not drawn) the value was 0.846; for `O=C1C2CCCN2C(c2ccc(F)cc2)N1c1cccc(Cl)c1` (stereo not drawn), -0.426.
For `O=C(Nc1ccc2c(c1)OCO2)c1ccc(N2CCCC2)c([N+](=O)[O-])c1` the value was -0.563; for `Cc1ccc(NC(=O)CS(=O)Cc2nc(-c3ccc(C)cc3)oc2C)cc1` (stereo not drawn), -0.188; for `N/C(=N\OC(=O)c1ccccc1[N+](=O)[O-])c1cccnc1`, 0.0652.
For `COc1ccc(OC)c(C2C(C(=O)Nc3ccccc3OC)=C(C)Nc3nc(CCCO)nn32)c1` (stereo not drawn) the value was -0.332; for `Cc1sc(NC(=O)C2CCCCC2C(=O)O)c(C(N)=O)c1-c1ccc(C(C)(C)C)cc1` (stereo not drawn), -0.35; for `CCCOC(=O)Nc1ccc(N2CCCCC2)cc1`, -0.659.
Consider `O=C(COc1ccccc1)Nc1ccc([N+](=O)[O-])cc1`, for which the z-score turned out to be 0.423.
Under `O=C(CCc1nc2cccnc2n1Cc1ccccc1)N1CCOCC1` stands 0.0984.
For `COc1cc([N+](=O)[O-])cc(CN2CCCCC2)c1O` the value was 0.162.
For `CC(CCc1ccccc1)NC(=O)C(=O)NCCO` (stereo not drawn) the value was -0.208.
For `CCCCOc1ccc(-c2nnn(CC(=O)c3c[nH]c4ccccc34)n2)cc1`, the z-score stood at 0.187.
Under `COc1ccc(CCNC(=O)NC2CCCCC2)cc1OC` stands -0.0796; under `COc1cccc(-c2nc(-c3ccc4c(c3)-c3ccccc3S4(=O)=O)c(-c3ccccc3)[nH]2)c1OC`, 0.192; under `O=C(N/N=C/c1ccc(OCCCF)cc1)c1cc(OCC(F)(F)F)ccc1OCC(F)(F)F`, -0.181.
Under `CCOC(=O)c1c(C)[nH]c(C)c1C(=O)COC(=O)[C@@H]1CCCN1S(=O)(=O)c1ccc(Cl)cc1` stands -0.306; under `CCOC(=O)N1CCN(C(=O)CCS(=O)(=O)c2ccc(Br)s2)CC1`, 0.042; under `CCN(CC)C(=O)CN1CCC(n2c(C)nc3cc(C(F)(F)F)ccc32)CC1`, -0.362.
For `CC(=O)Nc1ccc(-c2csc(NC(=O)CCCc3cccs3)n2)cc1` the value was -0.117.
